Assay results as given in the supplement of paper PMC4166925.
± gives the standard deviation of the averaged measurements. The full ranking holds about 33,000 sequences; the median of “E-score (dimensionless, -0.5 to 0.5)” is about -0.046, and the highest 2% start at about 0.36. The list shows a part of the results.

tested on: T1, SpTbr T-box DNA-binding domain (GST fusion); assay: PBM E-score of 8-mer (E-score (dimensionless, -0.5 to 0.5)); Tbr is Tbrain of the sea star Patiria miniata (Pm) or the sea urchin Strongylocentrotus purpuratus (Sp); higher = stronger binding preference; most listed sequences are background and not binding sites; settings: the construct has about 5 more residues each side
T1 sequence: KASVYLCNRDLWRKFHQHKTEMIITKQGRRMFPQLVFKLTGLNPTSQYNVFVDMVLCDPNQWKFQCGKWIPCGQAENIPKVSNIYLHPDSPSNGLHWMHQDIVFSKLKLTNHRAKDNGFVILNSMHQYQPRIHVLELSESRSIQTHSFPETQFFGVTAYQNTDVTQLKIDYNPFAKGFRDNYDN
Outline: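 Expression of GST-fused Tbr T-box DNA-binding domains, each holding the full T-box plus roughly five flanking residues, was carried out in BL21 E. coli at 20 °C, with purification by glutathione affinity chromatography. Universal Agilent arrays made double-stranded by primer extension were incubated with the protein at 200 nM in PBS (pH 7.5), then scanned and quantified. All ungapped 8-mers were scored from probe intensities, and each received an enrichment E-score from the Universal PBM Analysis Suite, averaged over duplicate arrays.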

| Sequence | PBM E-score of 8-mer |
| --- | --- |
| ATTTATTC | 0.0408 ± 0.033 |
| GGTACATA | -0.212 ± 0.05 |
| GATCGATA | 0.125 ± 0.056 |
| CCACAGAA | 0.14 ± 0.11 |
| GAAAACGC | -0.0489 ± 0.024 |
| ATTGGGTA | -0.207 ± 0.04 |
| AATCGCAC | 0.4074 ± 0.00091 |
| AACACGAT | 0.291 ± 0.022 |
| GTTTATCA | -0.00507 ± 0.13 |
| ACGCGTTA | 0.2834 ± 0.0018 |
| ACGAGTTG | 0.228 ± 0.025 |
| GGAATGCA | -0.286 ± 0.048 |
| AGAGACTG | -0.196 ± 0.075 |
| AGTTAGAT | -0.191 ± 0.0088 |
| ATCACCGC | -0.0213 ± 0.03 |
| ACCGAGCA | -0.0399 ± 0.074 |
| ACTCGCCA | 0.0725 ± 0.023 |
| AACCTCGG | -0.108 ± 0.049 |
| GGTTAGAC | -0.182 ± 0.072 |
| CTTAGAAA | -0.209 ± 0.049 |
| CTGGATAC | -0.27 ± 0.011 |
| CTGCTCGC | 0.195 ± 0.02 |
| CGCGCGGA | 0.189 ± 0.07 |
| CTCGCCTC | 0.192 ± 0.054 |
| ATTCTGCC | -0.0759 ± 0.078 |

| Sequence | PBM E-score of 8-mer |
| --- | --- |
| CAGAGACC | -0.343 ± 0.046 |
| AATAGAAG | -0.111 ± 0.0034 |
| TAGCAGGA | -0.0122 ± 0.014 |
| AAGTTCTG | -0.188 ± 0.025 |
| GGGCGAAA | -0.0835 ± 0.036 |
| AACATGAT | -0.0693 ± 0.025 |
| CACGAACC | -0.0691 ± 0.083 |
| AAGCGATC | -0.203 ± 0.015 |
| TAATCCTA | -0.339 ± 0.014 |
| AAACACAC | 0.246 ± 0.034 |
| ACCTACAT | 0.0216 ± 0.051 |
| CGCAAGAG | 0.00988 ± 0.026 |
| GGGGCTAC | -0.26 ± 0.02 |
| ACGGTACT | -0.153 ± 0.0092 |
| GGATAGAC | -0.202 ± 0.041 |
| GGGTTAGA | -0.0855 ± 0.059 |
| CATCAACG | 0.0446 ± 0.02 |
| ACATCACT | 0.0901 ± 0.025 |
| GATAGGAC | -0.15 ± 0.054 |
| ACGACATG | 0.1 ± 0.034 |
| TGGTACCA | -0.086 ± 0.026 |
| CAGCAATC | -0.0968 ± 0.013 |
| AAAACCCG | 0.0484 ± 0.011 |
| CTATTCAC | 0.212 ± 0.03 |
| AAGAGTGT | 0.301 ± 0.014 |

| Sequence | PBM E-score of 8-mer |
| --- | --- |
| CAAGAAGA | -0.275 ± 0.042 |
| GCATTACA | -0.0965 ± 0.02 |
| CAAAAACC | 0.0904 ± 0.0047 |
| GCTGGGGA | 0.00996 ± 0.029 |
| CTCGCACA | 0.37 ± 0.016 |
| CTGACAGC | 0.318 ± 0.0042 |
| CCAAAGTC | -0.1042 ± 0.00045 |
| ATGTGTCC | 0.144 ± 0.014 |
| GGCTGGAA | -0.0723 ± 0.015 |
| CGTTTTGC | 0.0266 ± 0.023 |
| AACTAAGT | -0.0152 ± 0.016 |
| CCCTGCAG | -0.16 ± 0.046 |
| CCTTCACG | 0.278 ± 0.019 |
| GGCCAAGA | -0.247 ± 0.012 |
| CGTGAGAG | 0.29 ± 0.029 |
| CTCGATGC | 0.0748 ± 0.0089 |
| GGCTACTA | 0.0206 ± 0.016 |
| ACGATCAT | -0.0399 ± 0.051 |
| GGTACGAC | -0.102 ± 0.0037 |
| CATCCCAA | -0.0964 ± 0.067 |
| CAGACAGA | -0.117 ± 0.048 |
| GCCGAGAC | -0.108 ± 0.15 |
| CACTCCGC | -0.0254 ± 0.02 |
| GCACTCCA | 0.0376 ± 0.031 |
| ACTTTCAG | -0.00936 ± 0.026 |

| Sequence | PBM E-score of 8-mer |
| --- | --- |
| CATATCTC | 0.0558 ± 0.021 |
| AAGTACGT | -0.0297 ± 0.078 |
| CGGGATCA | -0.031 ± 0.0063 |
| ATCGCTTG | -0.0947 ± 0.051 |
| AGCCCAAT | -0.276 ± 0.042 |
| CCTTTGTA | -0.0607 ± 0.053 |
| CCACTGGG | -0.0679 ± 0.051 |
| AGGCAATC | -0.232 ± 0.064 |
| ACTTTTCA | 0.152 ± 0.068 |
| GTCGGCAC | 0.209 ± 0.042 |
| ACGAATGC | -0.0199 ± 0.0011 |
| AGCACACG | -0.00428 ± 0.025 |
| AAAATAAC | 0.0155 ± 0.052 |
| CACGTGAA | 0.113 ± 0.013 |
| TATGGAAA | -0.205 ± 0.03 |
| CGGACATC | -0.287 ± 0.1 |
| CGCCGAAA | -0.021 ± 0.075 |
| CGCGGACC | 0.219 ± 0.039 |
| AGTGGATC | -0.201 ± 0.058 |
| ATATGGCG | -0.157 ± 0.076 |
| GGTCAAGA | -0.2007 ± 0.00072 |
| CAGGGTAA | -0.204 ± 0.015 |
| CCTACTAG | -0.0383 ± 0.072 |
| CAGGATCA | -0.153 ± 0.14 |
| ATGGACAG | -0.188 ± 0.05 |

| Sequence | PBM E-score of 8-mer |
| --- | --- |
| ATATCTCC | -0.126 ± 0.007 |
| GTGAAGAA | 0.232 ± 0.012 |
| AGGTGCAA | 0.414 ± 0.005 |
| GTCGAGAA | 0.115 ± 0.0073 |
| GGAAATCA | -0.166 ± 0.025 |
| CCCCAAAG | 0.0456 ± 0.024 |
| CAACGAAG | -0.0923 ± 0.14 |
| AGCGTACT | -0.179 ± 0.0054 |
| AAGGCCAG | -0.123 ± 0.079 |
| CTACCAAG | -0.0616 ± 0.013 |
| ATATGTTG | -0.00329 ± 0.071 |
| AGGGCGGG | -0.0912 ± 0.034 |
| AGACCAAT | -0.179 ± 0.015 |
| TACTTGAA | -0.218 ± 0.075 |
| GCAGTACA | -0.227 ± 0.0085 |
| GGATTACA | -0.0273 ± 0.0079 |
| ACACACAC | 0.316 ± 0.028 |
| CGAGAATA | -0.0372 ± 0.015 |
| CATCTTGG | -0.163 ± 0.059 |
| CATCGGCA | -0.0753 ± 0.08 |
| AGTGATAT | 0.13 ± 0.043 |
| CGAAGTAC | -0.169 ± 0.067 |
| GAAGGGGC | -0.116 ± 0.014 |
| TGAGAACA | 0.334 ± 0.012 |
| ATCCGCTC | -0.111 ± 0.014 |

| Sequence | PBM E-score of 8-mer |
| --- | --- |
| AAACGCGA | 0.12 ± 0.016 |
| GTCGCGTA | 0.0514 ± 0.011 |
| ATCGCCAT | 0.0354 ± 0.046 |
| ACTTATAG | 0.0355 ± 0.056 |
| AAGCGAGT | -0.134 ± 0.0023 |
| ATTAAAAG | -0.0493 ± 0.028 |
| ATAAAGAC | -0.156 ± 0.039 |
| AATAGAGG | -0.0703 ± 0.092 |
| CCGCCGAG | -0.0547 ± 0.1 |
| ATCTTACG | -0.163 ± 0.018 |
| AAGTTTGG | -0.094 ± 0.035 |
| CGACAACG | 0.267 ± 0.017 |
| AACTGCGG | -0.0804 ± 0.036 |
| ATTAACGA | 0.0966 ± 0.0074 |
| GACAGACA | 0.175 ± 0.023 |
| AACATGTC | 0.00394 ± 0.03 |
| CTGGAGGC | -0.131 ± 0.051 |
| AGTTTATC | -0.121 ± 0.081 |
| CTTTGCCA | 0.0143 ± 0.022 |
| ATTGCGGC | 0.0531 ± 0.015 |
| ATTATCTG | 0.00553 ± 0.015 |
| ACCGCAAA | -0.111 ± 0.0042 |
| ATTCGGGA | -0.246 ± 0.011 |
| CCATCGTA | -0.197 ± 0.042 |
| CCCGGGAA | 0.0553 ± 0.12 |

| Sequence | PBM E-score of 8-mer |
| --- | --- |
| AATTCTTA | -0.107 ± 0.051 |
| CATTGACG | 0.163 ± 0.027 |
| CCGTAGCA | -0.113 ± 0.046 |
| GAACGAAA | -0.0923 ± 0.0099 |
| AGGTTAAC | -9e-05 ± 0.072 |
| CCAGTGGG | -0.293 ± 0.064 |
| GGTACTTA | -0.262 ± 0.024 |
| ATAGAGTC | -0.206 ± 0.0048 |
| ACCTTTGC | 0.125 ± 0.0015 |
| CCGTCCGA | -0.095 ± 0.0034 |
| ACACGTCC | 0.3 ± 0.005 |
| AAGATCGC | 0.191 ± 0.013 |
| CCGGGAAG | -0.022 ± 0.044 |
| AGAGTATG | -0.1446 ± 0.00091 |
| CGATACAG | -0.0251 ± 0.13 |
| CCAATTTC | 0.0768 ± 0.033 |
| AAATCGCT | 0.00352 ± 0.036 |
| CAGTAGCC | -0.238 ± 0.072 |
| CCCCGCTC | -0.0391 ± 0.058 |
| ACGGTCCA | -0.169 ± 0.14 |
| CGATCAAC | 0.166 ± 0.05 |
| GCTATATA | -0.0767 ± 0.043 |
